This passage reports pest or weed control results from US12545639B2, “3-substituted phenylamidine compounds, preparation and use thereof” (PI INDUSTRIES LTD., priority 2019, dated 2026).

The test system of this assay is Botrytis cinerea. The assay can be described thus: Botrytis cinera test in tomato, preventive, in vivo on plants. To be noted: 500 ppm spray, bean/chili plants inoculated one day after treatment, rated 3, 7, 10 and 15 days after application, read-out: Efficacy (% control), disease severity compared to the untreated check.

As for `CCN(C)C=Nc1cc(C)cc(Cc2cccc(Cl)c2)c1Cl` [Compound 27, N′-(2-chloro-3-(3-chlorobenzyl)-5-methylphenyl)-N-ethyl-N-methylformimidamide], the pest or weed control at 500 ppm was no less than 70%. Turning to `CCN(C)C=Nc1cc(C)cc(Nc2cccc(C)c2)c1Cl` [Compound 36, N′-(2-chloro-5-methyl-3-(m-tolylamino)phenyl)-N-ethyl-N-methylformimidamide], the pest or weed control at 500 ppm is no less than 70%.

With `CCN(C)C=Nc1cc(F)cc(N(C)c2cccc(OC)c2)c1C` [Compound 39, N-ethyl-N′-(5-fluoro-3-((3-methoxyphenyl)(methyl)amino)-2-methylphenyl)-N-methylformimidamide], the pest or weed control at 500 ppm was no less than 70%. Next, `CCN(C)C=Nc1cc(C)cc(Cc2ccccc2Br)c1Cl` [Compound 45, N′-(3-(2-bromobenzyl)-2-chloro-5-methylphenyl)-N-ethyl-N-methylformimidamide]: no less than 70%. For the molecule `CCN(C)C=Nc1cc(C)cc(N(C)c2cccc(OC)c2)c1Cl` [Compound 49, N′-(2-chloro-3-((3-methoxyphenyl)(methyl)amino)-5-methylphenyl)-N-ethyl-N-methylformimidamide], the pest or weed control at 500 ppm was no less than 70%. Next, `CCN(C)C=Nc1cc(C)cc(N(C)c2ncccn2)c1Cl` [Compound 192, N′-(2-chloro-5-methyl-3-(methyl(pyrimidin-2-yl)amino)phenyl)-N-ethyl-N-methylformimidamide]: no less than 70%; `CCN(C)C=Nc1cc(C)cc(N(C)c2ccc(OC)c(F)c2)c1Cl` [Compound 258, N′-(2-chloro-3-((3-fluoro-4-methoxyphenyl)(methyl)amino)-5-methylphenyl)-N-ethyl-N-methylformimidamide]: no less than 70%. With `CCN(C)C=Nc1cc(OC)cc(Cc2ccc(C)cc2)c1C` [Compound 263, N-ethyl-N′-(5-methoxy-2-methyl-3-(4-methylbenzyl)phenyl)-N-methylformimidamide], the pest or weed control at 500 ppm is no less than 70%. Then `CCN(C)C=Nc1cc(OC)cc(Cc2cccc(Cl)c2)c1C` [Compound 264, N′-(3-(3-chlorobenzyl)-5-methoxy-2-methylphenyl)-N-ethyl-N-methylformimidamide], with no less than 70%; and `CCN(C)C=Nc1cc(OC)cc(Nc2ccc(OC)c(F)c2)c1C` [Compound 269, N-ethyl-N′-(3-((3-fluoro-4-methoxyphenyl)amino)-5-methoxy-2-methylphenyl)-N-methylformimidamide], with no less than 70%; and `CCN(C)C=Nc1cc(OC)cc(Cc2ccc(F)c(Cl)c2)c1C` [Compound 282, N′-(3-(3-chloro-4-fluorobenzyl)-5-methoxy-2-methylphenyl)-N-ethyl-N-methylformimidamide], with no less than 70%.
